PubChem BioAssay AID1347073 (National Center for Advancing Translational Sciences (NCATS), 2019)
Hit rate of the full screen: of about 45,000 compounds, about 200 (0.44%) were called active. Inconclusive results (about 7%) are left out. Calls follow the shape of the dose curve; as a rule, active = well fitted activation curve with a large enough effect; inconclusive = small, poorly fitted or top-dose-only effect; inactive = no such curve, though single readings can be large or run the other way. The list shows a part of the results.

Test: qHTS of TDP-43 Inhibitors: NCGC Sytravon Library Screen; also: 0% is about no effect; nearly all actives have a fitted effect of over 55% in size
Details: yeast TDP-43 toxicity rescue, BacTiter-Glo growth, 24 h; series mostly up to 46.1 µM; growth rescue (activation): at the top concentration
Outline: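 TDP-43-expressing yeast, pregrown in raffinose, seeded at OD600 0.02 in galactose medium with compound for 24 hr at 30 deg C. Growth read by BacTiter-Glo luminescence, so rescue of toxicity appears as activation.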

Structure (SMILES)	growth rescue (activation)
CCCCNC(=O)N(O)C1N(/N=C/c2ccccc2O)C(=S)SC1(C)C (centres undefined)	inactive: 13.7%
Cc1cnc(C(=O)OCC(=O)Nc2cccc(C)c2C)cn1	inactive: 13.4%
CCOC(=O)C(=CNc1cccc(C)n1)C(=O)OCC	inactive: 23%
CC(=O)Nc1ccccc1OC(C)C(=O)N1CC(C)CC(C)C1 (centres undefined)	inactive: 1.94%
COc1ccc(S(=O)(=O)N(C)c2ccc(C(=O)N3CCC(C(N)=O)CC3)cc2)cc1OC	inactive: -14.9%
CCCCC(=O)Nc1ccc2c(c1)nc(CCN1CCN(C)CC1)n2C	inactive: 5.83%
CC(=O)Nc1cccc(-c2ccnc3c2CC(C)(C(=O)NCc2ccncc2)O3)c1 (centres undefined)	inactive: -0.606%
C=CCn1c(C)csc1=Nc1ccc(C(=O)O)cc1	inactive: 6.1%
CN(C)c1nnnn1Cc1ccc(Cl)cc1Cl	inactive: 2.9%
Cc1cc2oc(=O)cc(CN3CCN(S(=O)(=O)c4cccs4)CC3)c2cc1C(C)C	inactive: 7.29%
Cc1ccc(C(=O)Nc2ccc(NC(=O)c3ccco3)c(C)c2)cc1	inactive: 5.91%
Cc1ccc(C(=O)N2c3ccccc3NC(=O)C2C)cc1 (centres undefined)	inactive: 3.94%
Cc1cc(C)n2cc(CSc3ccc(Br)cc3)nc2n1	inactive: 16%
CN(Cc1nc2ccccc2s1)C(=O)c1ccc(F)cc1	inactive: 0.189%
Cc1cc(/C=N/NC(=O)C(=O)NCc2ccccn2)c(C)n1-c1cccc(Br)c1	inactive: 22%
COc1ccc(C(=O)c2ccc(OC)c(Br)c2)cc1Br	inactive: 25.4%
CCCCN1C(=O)CC(Sc2ncccc2C(=O)O)C1=O (centres undefined)	inactive: 3.01%
Cn1cc(-c2coc3c(C(=O)NCc4cccnc4)cccc23)cn1	inactive: 7.29%
COc1ccccc1-c1c(C)nn2c(N)c(-c3ccccc3)cnc12	inactive: 19.8%
Cc1ccc(S(=O)(=O)Nc2ccc3cn[nH]c3c2)cc1C	inactive: 2.92%
Cc1ccc(CN(CC(=O)NCc2ccccn2)S(=O)(=O)c2ccccc2)cc1	inactive: 2.61%
O=C(O)CCc1nn2cc(-c3ccccc3)nc2[nH]c1=O	inactive: 4.2%
CC(C)c1ccc(NC(=O)CCNC(=O)Cn2ccc3ccccc3c2=O)cc1	inactive: 9.94%
CCOc1cc(/C=C/C(=O)O)ccc1OCCOc1ccc(F)cc1	inactive: 9.38%
CCOCCCNC(=S)Nc1ccc2nc3n(c(=O)c2c1)CCCCC3	inactive: 2.37%
Oc1cccc(C(O)CNCc2ccc(OCc3ccc(Cl)cc3Cl)cc2)c1 (centres undefined)	inactive: 21.8%
CCC(C)(C)NC(=O)C(c1ccc(O)cc1)N(CCOC)C(=O)CCC(=O)Nc1nccs1 (centres undefined)	inactive: 32.9%

Structure (SMILES)	growth rescue (activation)
COc1cc(NC(=S)N2CCN(C/C=C/c3ccccc3)CC2)cc(OC)c1	inactive: -5.49%
CC(NC(=O)COC(=O)c1ccc(Br)o1)c1ccccc1 (centres undefined)	inactive: -3%
CC(C)N1CCC(N2CCN(Cc3ccc4nsnc4c3)CC2CCO)CC1 (centres undefined)	inactive: -8.19%
Cc1ccc(OCC(=O)Nc2cccc(S(=O)(=O)N3CCCCC3)c2)c([N+](=O)[O-])n1	inactive: -16.7%
CCC(=O)N(C)CCc1cc2c(c(OC)c1/C=N/NC(=O)[C@H]1C[C@@H]1c1ccccc1)OCO2	inactive: -0.34%
Cn1c(CC(=O)Nc2ccccc2)nnc1SCC(=O)NC1=NCCS1	inactive: 5.45%
COc1ccc(CN2C(=S)NC(C)(C)CC2(C)O)cc1 (centres undefined)	inactive: 2.56%
O=C(/C=C/c1ccccc1[N+](=O)[O-])NCc1cccnc1	inactive: 1.21%
C/C(=N\Nc1nncc2ccccc12)c1ccc(OCC(=O)N(C)C)cc1	inactive: 13.2%
COC(=O)/C=c1\[nH]c2nnc(C)n2c1=O	inactive: 3.68%
Cc1ccc(C(=O)NNC(=O)/C=C\C(=O)O)cc1	inactive: 12.5%
CCOc1ccc(S(=O)(=O)Nc2nc3ccccc3nc2Nc2ccc(N3CCOCC3)cc2)cc1	inactive: 9.67%
CC(C)COc1ccc(C(=O)Nc2scc(-c3ccc(Br)cc3)c2C(=O)OC(C)C)cc1	inactive: -0.578%
COc1ccccc1NC(=O)C(C)N(C)Cc1ccc(Cl)s1 (centres undefined)	inactive: 5.27%
CC(C)Oc1ccc(S(=O)(=O)N2CCCCC2)cc1NC(=O)CN1C(=O)NC(C)(C2CC2)C1=O (centres undefined)	inactive: 22.3%
CCOC(=O)c1c(NC(=O)CSc2ncnc3[nH]ncc23)sc2c1CCC(C)C2 (centres undefined)	inactive: -1.56%
O=C(CSc1nnc2c(Cl)cc(Cl)cn12)N1CCN(c2ccc(F)cc2)CC1	inactive: -21.6%
CCSc1nc2sccc2c(=O)n1-c1ccccc1	inactive: 24.7%
Cc1cc(-c2n[nH]c(=S)n2/N=C/c2cccc(O)c2)n[nH]1	inactive: -1.49%
O=C(Nc1cccnc1Cl)c1ccc(=O)oc1	inactive: -6.05%
CSc1cccc(NC(=O)c2[nH]c(C)c(C(C)=O)c2C)c1	inactive: -10.3%
O=c1[nH]nc(-c2ccc(NCCCO)c([N+](=O)[O-])c2)c2ccccc12	inactive: 1.3%
CC(NC(=O)COC(=O)C1=NN(c2ccccc2)C(=O)CC1)c1ccccc1 (centres undefined)	inactive: 10.7%
CCC1(CC)NC(=O)N(CC(=O)NC(=O)NCc2ccccc2)C1=O	inactive: -7.73%
CC1CCCCN1C(=O)c1cccc(NC(=O)c2ccccc2)c1 (centres undefined)	inactive: 9.5%
CCCn1c(O)c(CN2CCCC(C)C2)c(C)c(C#N)c1=O (centres undefined)	inactive: 6.07%
CC(=O)Nc1ccc(S(=O)(=O)N(C)c2ccc(OCCOc3cccc(C)c3)cc2)cc1	inactive: 6.54%
